{"source": "PubChem BioAssay AID1476", "about": "(National Center for Advancing Translational Sciences (NCATS), 2009)", "note": "About 4,500 (2.2%) of roughly 200,000 compounds were called active. The shares of active, inactive and inconclusive entries below differ from those in the screen. Calls come from the whole dose curve; as a rule, active = well fitted inhibition curve with a large enough effect; inconclusive = small, poorly fitted or top-dose-only effect, or effect the other way; inactive = flat fitted curve, though single readings scatter. Potencies beside an inconclusive call are fits to weak or partial responses and may not hold up. Potency is the fitted concentration of half-maximal effect; tags give direction and shape of the fitted curve.", "data": [{"molecular_target": "Cruzipain (Trypanosoma cruzi) (UniProt P25779)", "sequence (P25779 whole entry, looked up)": "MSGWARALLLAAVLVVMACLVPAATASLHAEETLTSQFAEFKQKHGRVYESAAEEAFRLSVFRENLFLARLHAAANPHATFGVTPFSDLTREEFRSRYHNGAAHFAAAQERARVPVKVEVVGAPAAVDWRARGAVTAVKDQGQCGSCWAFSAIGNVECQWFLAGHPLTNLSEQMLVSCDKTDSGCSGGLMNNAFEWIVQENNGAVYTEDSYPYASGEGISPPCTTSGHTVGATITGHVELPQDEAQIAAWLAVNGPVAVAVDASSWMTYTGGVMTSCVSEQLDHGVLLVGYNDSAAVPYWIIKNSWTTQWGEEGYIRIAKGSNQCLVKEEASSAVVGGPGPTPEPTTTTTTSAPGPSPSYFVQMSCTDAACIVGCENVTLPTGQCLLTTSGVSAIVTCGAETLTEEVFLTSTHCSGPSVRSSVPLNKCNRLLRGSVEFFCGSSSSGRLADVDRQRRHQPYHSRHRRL", "experiment": "qHTS Assay for Promiscuous and Specific Inhibitors of Cruzain (without detergent); note: nearly all actives have a fitted effect of over 40% in size;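 for max response, negative = inhibition: plate controls were enzyme without inhibitor for no effect and buffer without enzyme for full effect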", "details": "purified cruzain, Z-FR-AMC fluorescence, no detergent", "how_it_was_run": "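Detergent-free condition (0.00005% Triton X-100) in acetate buffer pH 5.5 with DTT. 1.5 nM enzyme and compound were pre-mixed 15 min, then 2 uM Z-FR-AMC substrate added; reaction progress from fluorescence change between first and third reads (60 s).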", "values": [{"smiles": "CCCCCOC(=O)NCC(O)c1ccccc1", "note": "(stereo not given)", "Potency": "inconclusive: 25.1 µM [activator, partial curve]"}, {"smiles": "CCc1cccc(NC(=O)C(NS(=O)(=O)c2ccc3nc(C)sc3c2)C(C)C)c1", "note": "(stereo not given)", "max response, negative = inhibition": "inactive: 3.5%"}, {"smiles": "Cc1ccc(NC(=O)CN2C(=O)S/C(=C\\c3cccn3C)C2=O)cc1", "Potency": "inconclusive: 39.8 µM [inhibitor, single point]"}, {"smiles": "CC(C)c1ccc2c(c1)NC(c1ccncc1)=NC(c1cccs1)=N2", "max response, negative = inhibition": "inactive: 1.81%"}, {"smiles": "COc1cccc(NC(CNS(=O)(=O)c2ccc(Cl)cc2)c2ccccc2)c1", "note": "(stereo not given)", "Potency": "inconclusive: 39.8 µM [inhibitor, single point]"}, {"smiles": "CCOc1ccc(-n2c(SCC(=O)Nc3ccc4c(c3)OCCO4)nc3c([nH]c4ccccc43)c2=O)cc1", "Potency": "inconclusive: 6.31 µM [inhibitor, single point]"}, {"smiles": "Cc1ccc(C)n1-c1cccc(C(=O)O)c1", "Potency": "inconclusive: 31.6 µM [activator, single point]"}, {"smiles": "CCc1cccc(NC(=O)C2CCC(CNS(=O)(=O)c3ccc4c(c3)CCCC(=O)N4)CC2)c1", "note": "(stereo not given)", "Potency": "inconclusive: 39.8 µM [activator, single point]"}, {"smiles": "Cn1nc(-c2ccc(Cl)cc2)nc2c(=O)n(C)c(=O)nc1-2", "Potency": "active: 1.58 µM"}, {"smiles": "CCOC(=O)c1cccc(NC(=O)CSc2nc3ccccc3c(=O)n2CCOC)c1", "Potency": "inconclusive: 39.8 µM [activator, single point]"}, {"smiles": "CC(C)(C)c1ccc(S(=O)(=O)N2CCCCC2C(=O)NCc2ccccn2)cc1", "note": "(stereo not given)", "Potency": "inconclusive: 31.6 µM [activator, single point]"}, {"smiles": "C[C@@H](SCc1ccccc1)C(=O)O", "max response, negative = inhibition": "inactive: 5.6%"}, {"smiles": "CCCn1c(=O)c(C(=O)Nc2ccccc2C(=O)OC)c(O)c2ccccc21", "Potency": "inconclusive: 31.6 µM [activator, single point]"}, {"smiles": "CCc1c(C)sc2c1CCN(C(=O)Nc1cc(C)ccc1OC)C2c1ccc(F)cc1", "note": "(stereo not given)", "Potency": "inconclusive: 6.31 µM [inhibitor, single point]"}, {"smiles": "COc1ccc(-c2c(C)nn3c(N4CCN(c5ccccc5F)CC4)cc(C)nc23)cc1OC", "max response, negative = inhibition": "inactive: -7.57%"}, {"smiles": "COc1ccc2c(c1)c(=O)oc1cc(OCC(=O)N3CCC(C)CC3)ccc12", "Potency": "inconclusive: 12.6 µM [activator, partial curve]"}, {"smiles": "C=CCc1ccc(OCc2ccc(C(=O)Nc3ccc(NC(C)=O)cc3)o2)c(OC)c1", "Potency": "inconclusive: 25.1 µM [activator, partial curve]"}, {"smiles": "Cn1c(-c2c(N)n(C3CCCC3)c3nc4ccccc4nc23)nc2ccccc21", "Potency": "inconclusive: 20 µM [activator, partial curve]"}, {"smiles": "CC(C)c1ccc(C2CC(c3ccc(Br)cc3)=NN2C(N)=S)cc1", "note": "(stereo not given)", "Potency": "inconclusive: 20 µM [inhibitor, partial curve, poor fit]"}, {"smiles": "c1ccc([P+](CC[P+](c2ccccc2)(c2ccccc2)c2ccccc2)(c2ccccc2)c2ccccc2)cc1", "max response, negative = inhibition": "inactive: -0.563%"}, {"smiles": "CC(C)c1ccc(NC(=O)c2ccc(Cn3nc(N4CCN(c5ccccc5)CC4)ccc3=O)o2)cc1", "Potency": "inconclusive: 20 µM [activator, partial curve]"}, {"smiles": "O=C(Cn1ncn2nc(-c3cccs3)cc2c1=O)NCc1ccccc1Cl", "max response, negative = inhibition": "inactive: -5.39%"}, {"smiles": "COc1ccc(-c2noc(CCCc3ccccc3)n2)cc1OC", "Potency": "inconclusive: 39.8 µM [activator, single point]"}, {"smiles": "CCN(CC)S(=O)(=O)c1ccc(C(=O)NCc2ccc3[nH]c4c(c3c2)CCCC4)cc1", "Potency": "inconclusive: 25.1 µM [inhibitor, single point]"}, {"smiles": "CN(C)CC(C)(C)CN1c2ccccc2Sc2ccccc21", "max response, negative = inhibition": "inactive: -7.07%"}, {"smiles": "COc1ccc(CNC(=O)c2cccc(N3CCCS3(=O)=O)c2)cc1OC", "max response, negative = inhibition": "inactive: -2.24%"}, {"smiles": "COc1cccc(N2C(C(C)=O)=NN(c3ccccc3)C2c2ccc(N3CCOCC3)cc2)c1", "note": "(stereo not given)", "Potency": "inconclusive: 39.8 µM [inhibitor, single point]"}, {"smiles": "COc1ccc(NC(=O)CN2C(=O)C3(SCC(=O)N3c3ccccc3)c3ccccc32)cc1Cl", "note": "(stereo not given)", "Potency": "active: 20 µM"}, {"smiles": "Cc1c(C(=O)N(Cc2cccc(F)c2)C2CCS(=O)(=O)C2)oc2cc(Br)ccc12", "note": "(stereo not given)", "max response, negative = inhibition": "inactive: 17.7%"}, {"smiles": "COc1ccc(NC(=O)Nc2nnc(-c3ccccc3SCc3ccccc3)s2)cc1", "Potency": "active: 10 µM"}, {"smiles": "Cc1c(C(=O)Nc2ccccc2F)sc2ncnc(N(C)C3CCCCC3)c12", "Potency": "inconclusive: 39.8 µM [inhibitor, single point]"}, {"smiles": "COC(=O)C1C2c3ccccc3OC1(C)N=c1s/c(=C/c3cnn(C)c3)c(=O)n12", "note": "(stereo not given)", "Potency": "inconclusive: 39.8 µM [activator, single point]"}, {"smiles": "O=C(NCc1ccc(F)cc1)c1ccc(Nc2nc3ccccc3n3nnnc23)cc1", "max response, negative = inhibition": "inactive: 12.1%"}, {"smiles": "O=[N+]([O-])c1ccc(N2CCN(S(=O)(=O)c3ccccc3)CC2)cc1N1CCc2ccccc2C1", "Potency": "active: 7.94 µM"}, {"smiles": "Cc1ccc(NC(=O)c2cc(C)n(-c3cccc(C)c3)c2C)cc1", "Potency": "inconclusive: 39.8 µM [inhibitor, single point]"}, {"smiles": "CCc1cccc(C)c1NC(=O)Cn1c(=O)cc(C)c2c(C)nn(-c3cccc(F)c3)c21", "max response, negative = inhibition": "inactive: 0.921%"}, {"smiles": "Cc1cccc(OCc2nnc(SCC(=O)N3c4ccccc4CC3C)n2C)c1C", "note": "(stereo not given)", "Potency": "inconclusive: 39.8 µM [activator, single point]"}, {"smiles": "COc1ccc(NC(=O)c2ccccc2-c2ccc(C(F)(F)F)cc2)cc1S(=O)(=O)N1CCOCC1", "Potency": "inconclusive: 31.6 µM [activator, single point]"}, {"smiles": "Cc1ccc(-c2ccc(C(=O)Nc3ccccc3)o2)c2ccccc12", "Potency": "inconclusive: 25.1 µM [inhibitor, single point]"}, {"smiles": "COC(=O)c1ccc(N=C2S/C(=C\\c3cc(C)n(-c4cccnc4)c3C)C(=O)N2C)cc1", "Potency": "inconclusive: 39.8 µM [activator, single point]"}, {"smiles": "O=C(Nc1ccccc1Br)C(Cc1ccccc1)NS(=O)(=O)c1cccc2nsnc12", "note": "(stereo not given)", "Potency": "inconclusive: 39.8 µM [inhibitor, single point]"}, {"smiles": "COc1ccccc1NC(=O)C1CCN(C(=O)c2sc3nc[nH]c(=O)c3c2C)CC1", "Potency": "inconclusive: 0.398 µM [activator, partial curve, poor fit]"}, {"smiles": "O=C(Nc1ccc(Cl)cc1)OCCn1nnnc1C(c1ccccc1)N1CCOCC1", "note": "(stereo not given)", "Potency": "inconclusive: 39.8 µM [activator, single point]"}, {"smiles": "COc1ccc(Oc2ccc(/C=C/C(=O)c3cccc(OC)c3)cc2[N+](=O)[O-])cc1", "Potency": "inconclusive: 39.8 µM [inhibitor, single point]"}, {"smiles": "O=C(O)COCC(=O)Nc1ccc2c(c1)CCC2", "max response, negative = inhibition": "inactive: -11.5%"}, {"smiles": "COc1ccc(N2CC(NC(=O)c3ccco3)CC2=O)cc1", "note": "(stereo not given)", "max response, negative = inhibition": "inactive: -10.7%"}, {"smiles": "CC/C(=C(\\c1ccccc1)c1ccc(OCCN(C)C)cc1)c1ccc(O)cc1", "max response, negative = inhibition": "inactive: -4.12%"}, {"smiles": "CCS(=O)(=O)c1nc(S(=O)(=O)c2ccc(C)cc2)c(NCCCOC)s1", "max response, negative = inhibition": "inactive: -11.2%"}, {"smiles": "Cn1nnc(NC(=O)COc2ccc(C3CCCCC3)cc2)n1", "Potency": "inconclusive: 31.6 µM [activator, single point]"}, {"smiles": "CSCCC(NC(=O)c1ccc([N+](=O)[O-])cc1Cl)C(=O)OCC(=O)NCCCc1ccccc1", "note": "(stereo not given)", "Potency": "inconclusive: 25.1 µM [inhibitor, single point]"}, {"smiles": "CC(CNC(=O)c1ccc(CSc2nc3ccncc3n2Cc2ccccc2)cc1)c1ccccc1", "note": "(stereo not given)", "max response, negative = inhibition": "inactive: 13.4%"}, {"smiles": "COc1ccc(CNC(=O)CSc2nc(-c3ccc(OC)c(OC)c3)cc(C(F)(F)F)n2)cc1", "max response, negative = inhibition": "inactive: -3.68%"}, {"smiles": "O=C(COc1ccc([N+](=O)[O-])cc1)Nc1ccc(N2CCCC2)cc1", "Potency": "active: 7.94 µM"}, {"smiles": "CC(O)CN1C(=O)C(CC(=O)Nc2ccc(Cl)cc2)SC1=Nc1ccccc1", "note": "(stereo not given)", "Potency": "inconclusive: 39.8 µM [activator, single point]"}, {"smiles": "CCOc1ccc(C2C(=O)N(C3CCCCCC3)CC(=O)N2CCc2ccc(OC)c(OC)c2)cc1OC", "note": "(stereo not given)", "Potency": "inconclusive: 39.8 µM [activator, single point]"}, {"smiles": "COc1ccc(-n2c(SCC(=O)Nc3sc4c(c3C#N)CCCC4)nnc2-c2ccc(O)cc2)cc1", "Potency": "inconclusive: 39.8 µM [inhibitor, single point]"}, {"smiles": "O=S(=O)(c1ccc2nc(NCc3ccccc3Cl)ccc2c1)N1CCCCC1", "Potency": "inconclusive: 39.8 µM [inhibitor, single point]"}, {"smiles": "COc1ccc(/C=N/NC(=O)CCn2c3ccccc3c3ccccc32)cc1OC", "Potency": "inconclusive: 31.6 µM [activator, single point]"}, {"smiles": "CCOC(=O)C1=C(O)/C(=C/c2ccc(OCC(=O)O)c(OCC)c2)SC1=Nc1ccc(OC)cc1", "Potency": "inconclusive: 6.31 µM [activator, single point]"}, {"smiles": "Cc1ccc(C(=O)NN2C(=O)/C(=C/c3cn(C)c4ccccc34)SC2=S)cc1", "Potency": "active: 10 µM"}, {"smiles": "FC(F)(F)c1cc(-c2ccccc2)nc(NC2CCCC2)n1", "max response, negative = inhibition": "inactive: -5.66%"}, {"smiles": "CCSc1nnc(-c2sc3nnc(-c4ccccc4)c(-c4ccccc4)c3c2N)o1", "Potency": "inconclusive: 39.8 µM [inhibitor, single point]"}, {"smiles": "Cc1c(CCC(=O)NCc2cccc(Cl)c2)c(=O)oc2c(C)c(O)ccc12", "Potency": "inconclusive: 31.6 µM [inhibitor, single point]"}, {"smiles": "CCCCCc1nc(N)c(C#N)c(-c2ccco2)c1CCCC", "Potency": "inconclusive: 31.6 µM [inhibitor, single point]"}, {"smiles": "Cc1ccc(CCNC(=O)CS(=O)Cc2nc(-c3ccccc3C)oc2C)cc1", "note": "(stereo not given)", "Potency": "inconclusive: 39.8 µM [activator, single point]"}]}]}
